Assay results: the supplement of paper PMC10126150
Sequences with one replicate were seen in a single cluster, so their values are uncertain.

System: ATP
Test: switch fluorescence ratio, 500 uM ATP over buffer (Cy3 cluster intensity, sum of 5 cycles each) (fold (ratio)); higher = stronger signal-on switching upon ATP binding; sequences stand for … in TCGTCGGCAGCGTCAGATGTGTATAAGAGACAGTTTTTTTTTTTTTTTTTTTTTTTTT…TC
Conditions: aptamer strand: ATP DNA aptamer (quencher-CACCTGGGGGAGTATTGCGGAGGAAGG + anchor), 100 nM annealed; ATP concentration: 500 uM; one replicate
How it was run: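 Cy3-labelled switching-strand clusters on a modified Illumina MiSeq flow-cell were annealed to 100 nM quencher-labelled ATP aptamer, imaged in selection buffer, then imaged after 15 min with 500 uM ATP at 22 °C. Five buffer/ATP cycles ran, with NaOH stripping and re-annealing between them. The fluorescence ratio is summed target-cycle over summed buffer-cycle Cy3 intensity per cluster, averaged per switch-domain sequence. Clusters outside 100-1000 RFU were excluded.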
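Note: ATP exposure 15 min at 22 °C before imaging.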

Row | Sequence | switch fluorescence ratio
1 | TATCAGTTGC | 0.98
2 | TATCCAATTT | 1.01
3 | TATCCAGTTT | 0.843
4 | TATCCCAAC | 1.02
5 | TATCCCAAGT | 0.992
6 | TATCCCACAG | 1.53
7 | TATCCCCTTG | 1.03
8 | TATCCCTCGT | 1.01
9 | TATCCGTTTC | 1.05
10 | TATCCTATAT | 1.02
11 | TATCCTGCGC | 1.81
12 | TATCCTGCTC | 1.1
13 | TATCGATCCC | 1.05
14 | TATCGATGG | 0.999
15 | TATCGCCGCA | 1.06
16 | TATCGGCTCG | 0.983
17 | TATCGGTTC | 0.934
18 | TATCGTATAT | 0.97
19 | TATCTATGCA | 1.02
20 | TATCTCACCA | 1.06
21 | TATCTGGTT | 0.96
22 | TATCTTGGTT | 0.951
23 | TATCTTGTAC | 1.03
24 | TATCTTTGGT | 1.01
25 | TATGAAACTT | 1.02
26 | TATGAATGCT | 1.01

Row | Sequence | switch fluorescence ratio
27 | TATGACACTC | 1.01
28 | TATGATGACC | 1.01
29 | TATGATGAGA | 0.993
30 | TATGCAATGT | 1.13
31 | TATGCATATC | 1.06
32 | TATGCCATGG | 1.03
33 | TATGCCCGAT | 0.969
34 | TATGCCCGTT | 0.947
35 | TATGCCCTGC | 1.03
36 | TATGCCGATA | 0.988
37 | TATGCGGCGG | 1.02
38 | TATGCGGGAG | 0.995
39 | TATGCTCTG | 0.997
40 | TATGCTGGAC | 1.01
41 | TATGCTGTA | 1.1
42 | TATGCTTTCG | 1.04
43 | TATGGAAGC | 0.997
44 | TATGGACAGA | 1.04
45 | TATGGACT | 0.998
46 | TATGGATAGA | 1.03
47 | TATGGATGC | 0.998
48 | TATGGATGTT | 0.993
49 | TATGGCAGT | 1.01
50 | TATGGCCGTT | 1.01
51 | TATGGGCATG | 0.961
52 | TATGGTCACG | 1

Row | Sequence | switch fluorescence ratio
53 | TATGGTTCTC | 1
54 | TATGGTTCTG | 1.01
55 | TATGGTTTGA | 0.971
56 | TATGTAGAAT | 1.01
57 | TATGTAGCGT | 1.03
58 | TATGTCACTT | 1.04
59 | TATGTCATGA | 1.01
60 | TATGTCGCAA | 1.85
61 | TATGTTCCG | 0.993
62 | TATGTTGGGA | 1.02
63 | TATGTTTCCA | 1.13
64 | TATTAAACGT | 1.07
65 | TATTAATGAA | 1.01
66 | TATTACTGGA | 1.18
67 | TATTAGAAGA | 0.957
68 | TATTAGTCTG | 0.968
69 | TATTATGCAA | 1.12
70 | TATTATTCAG | 0.957
71 | TATTCAACCT | 1.74
72 | TATTCAAGGC | 1.11
73 | TATTCAATGT | 1
74 | TATTCACGAT | 1.04
75 | TATTCCGAAA | 1.78
76 | TATTCCGCGG | 1.15
77 | TATTCCTCAA | 1.26
78 | TATTCCTGAA | 0.957

Row | Sequence | switch fluorescence ratio
79 | TATTCCTTTA | 1.02
80 | TATTCGAGTT | 0.98
81 | TATTCGGAGA | 0.988
82 | TATTCTAAG | 0.95
83 | TATTCTACA | 1.02
84 | TATTCTTATA | 0.969
85 | TATTGAACGT | 1.02
86 | TATTGATTTT | 1.04
87 | TATTGCCGTC | 1.04
88 | TATTGCCTAT | 1.02
89 | TATTGCTACG | 0.999
90 | TATTGGAGAG | 1.04
91 | TATTGGGAC | 0.963
92 | TATTGGTGTG | 0.98
93 | TATTGTAAGA | 0.977
94 | TATTGTGATG | 0.972
95 | TATTTAAGAA | 0.986
96 | TATTTACATC | 1.01
97 | TATTTAGG | 0.981
98 | TATTTATAAT | 0.985
99 | TATTTCACCT | 1.12
100 | TATTTCCATA | 0.987
101 | TATTTGCTT | 1
